# The source gives no read counts; variants with many changes may rest on few reads.
# B1: CPEB3 Ribozyme (parent)
# chain: UAACAGGGGGCCACAGCAGAAGCGUUCACGUCGCAGCCCCUGUCAGAUUCUGGUGAAUCUGCGAAUUCUGCUGUAUAUCUC
# Variants of: B1
# Assay: self-cleavage, relative activity (ratio to wild type); higher = more cleavage; in vitro, sequencing
# Summary of the method: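 CPEB3 self-cleaving ribozyme mutant libraries were made by rounds of error-prone PCR, barcoded, and transcribed in vitro with T7 RNA polymerase for 5 hours at 37°C. Cleavage occurred during transcription and a 15 min DNase I step before EDTA stop. RNAs were reverse transcribed with template switching and Illumina-sequenced, with DNA sequencing mapping barcodes to variants. Relative activity is the variant's cleaved/total read fraction divided by wild type's (minimum 5 reads), averaged across three batches.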
row,Variant,self-cleavage
1,U49C U54C U60C U78C U80A,0.05
2,G53U U58C U69C,0.3
3,A56G U60C A64G,0.2
4,U60C A64G U67A U78C,0.19
5,G53A A65G U78A,0.74
6,U49C A57U U69C,0.1
7,G52U U69C G70A,0.26
8,U49C U51C U80G,0.24
9,A57C U69A U72A,0.2
10,U48C U51C A65G U80C,0.2
11,U49C G55A U60C,0.13
12,U67C U74A A75U,0.25
13,U54C A65C U67C,0.11
14,U51C A64G U78A,0.86
15,A56G A57G A64U U72A,0.19
16,U48C A56U U72A U78C,0.12
17,U49G U69A U74A,0.3
18,U54C A56G A64G,0.49
19,A56U G63U U78C,0.61
20,A65G U67C U72C,0.2
21,U51C G52U U54A,1.03
22,A64G U72C U76A,0.68
23,U51C A64U U69C,0.47
24,U48G U58C U72C C79U,0.15

row,Variant,self-cleavage
1,U66C U72C U78C,0.39
2,U51C A56G U67C,0.24
3,A64U U69C U74C,0.18
4,U49C A64G U66C U78G,0.09
5,U49C A57G U72A,0.11
6,U49C G53C A64U U74A A75C,0.27
7,U54C U58C U60C A64G U69C,0.17
8,G53A A64G U67C,0.21
9,U48C U60A U69A,0.29
10,U54C A57G U60C U69C,0.13
11,G55A A56G U80G,1.04
12,G55A A56G U80C,0.81
13,U48C U54C G63A,0.52
14,A56G U67A U69C,0.24
15,U60A C62A U66C U76C,0.26
16,G52C U54A A64U U69C,0.43
17,A65G U66C U69C U80C,0.15
18,U51C A65G C71U U78C,0.32
19,U49C A65G U69C,0.38
20,U48C A57U A65G U72C A77G,0.36
21,A64G U69C U76C,0.43
22,U54C A57U U80A,0.85
23,U54G A65C U72A,0.13
24,U67C U72C U80C,0.4

row,Variant,self-cleavage
1,U49C U51C U67G U72C G73U U78C U80A,0.19
2,A57G U67C A75G,0.32
3,U72A U74A U78C,1.12
4,G53A A64G A65G U72A,0.21
5,U49C A56G C62U A64G A65G,0.12
6,A56G U67C U74C,0.26
7,U49C A65G U72C U78C,0.12
8,G53U U58C C59G U69C,0.16
9,U54A A64U A77G,0.3
10,U51G G53A U69C A75G,0.59
11,U48C A57G U58A U60C U72G C79U,0.13
12,A57G A65G U69G,0.22
13,U49A U78G C81U,0.97
14,C50U U51A A77G,0.82
15,A57G A65G A75G,0.15
16,U49A U58A U74C,0.21
17,U48C U49C U76C,0.41
18,U51C U54C A64G U76C U78C,0.75
19,U49C A64G U74C,0.24
20,U49C U60A U78A,0.17
21,U49C U60A U78C,0.12
22,U49C U51A U54C,0.38
23,U54C A64U U80C,0.34
24,G52U U66C U67C,0.18

row,Variant,self-cleavage
1,U51A U60A C68U,0.29
2,U54C A56G U60C,0.39
3,U49C U51A U60C U66C U80C,0.22
4,C59U U69A U76C U80C,0.58
5,A57G A65C U72A U78C,0.11
6,A57G U66C U76C,0.32
7,A57G A64U A77U C81G,0.34
8,A56G A64C A75U U78A,0.15
9,C62U U69C U72C,0.26
10,C71A U72A U78C,0.37
11,A56G A57U U72C,0.22
12,U51C U60A U69G,0.44
13,U54C U72C U78A,1.03
14,U48C U49C U74C,0.42
15,U58C U69C A75U,0.27
16,U54A U58C A64U U67A,0.37
17,U48C U69A U80C,0.49
18,U49C U58C U66C,0.07
19,A56G A64G U74C,0.96
20,U60G U72C G73U C79A,0.77
21,A56G A64U U66G,0.15
22,U54C A65G U78C U80C,0.15
23,G53A U69A U72C,0.64
24,U48C U49A U51C,0.51

row,Variant,self-cleavage
1,U58C U69G U72C,0.22
2,U48C U54G U80C,0.24
3,A56G A64G U67C C68U,0.36
4,A57G U66C U69A U72G,0.19
5,A56U U66A U78A,0.15
6,U48C U58C U76A,0.11
7,C50A G61A U74A U80A,1.04
8,U54C A57U A64C,0.2
9,U51A U74G C79A U80C,1.3
10,U54C A65G U78C,0.31
11,U58C U60A U78A,0.15
12,U51C G63U A64U U72A A77U,0.65
13,U51C U58C A64U,0.29
14,U48C A57G U78A,1.26
15,G55A U72C U80C,1.21
16,A56G A64G U67C,0.26
17,U51C U69A U76A,0.61
18,U51C A57G U72A,0.28
19,U51C A57G C81A,1.19
20,A56G A77G U80G,0.93
21,U49C U51A A56U U69C,0.22
22,U72A A77G U78C,1.11
23,U60A A64G U72A U80A,0.43
24,U48C U49G U69A U76C,0.09

row,Variant,self-cleavage
1,U49C U67C U80A,0.19
2,A65G U72C U78A,0.42
3,U54C U69G U80A,0.53
4,U49C U54C A56U U67C A77G,0.08
5,C50A C59U U78C,0.26
6,A57G A64G U76G,0.48
7,A57G C68G U80C,0.23
8,A56G U69A A77U,0.53
9,U54C U78A U80A,1.22
10,U60A U74C U76A,1.13
11,U51A A56G G61A,0.63
12,U51G U67C U74G,0.39
13,G53C A64G U80A,1.14
14,U49C U66A U80C,0.14
15,C62A A65U G70A,0.39
16,A65G U74C U76A,0.7
17,U51C A56G A77G,0.88
18,G52A U69A U80A,0.98
19,U48C U58A U80G C81U,0.1
20,U54G U67C A75U,0.16
21,U49C U51A U58A,0.47
22,U67C G70A U72A,0.21
23,C50A A57G U69A U78C,0.3
24,U48C C50A A65G U67C U72C,0.09

row,Variant,self-cleavage
1,U49C A57G U78C,0.42
2,U51A G61A C62U,0.36
3,U60A A65G U78C C81U,0.23
4,U54C C71A U78C,0.13
5,A56G U66C U80C,0.65
6,U54C A65U U69C,0.19
7,U58C U67G U76A,0.16
8,U49C G52A U60C,0.14
9,U48C U58A U78A,0.3
10,U66C U69G U74A,0.36
11,U51C G52U G55U G63C,0.32
12,C71U A75G U78C,0.25
13,U49C U67C U72G,0.12
14,U51A A56U U80C,0.41
15,A56U U60C U69C G73A,0.33
16,U51C U66G U67A U72C,0.34
17,U51A A64G U67C U78C,0.44
18,U49A U54C C71U,0.26
19,A65G U69C U76C,0.22
20,A57G A75G C81U,0.95
21,U58C U74C A75C,1.06
22,U49A A65G U67C C68A,0.4
23,A64U U67C U69G U72A,0.22

# From the RNAGym collection of RNA variant scans (doi:10.1093/nar/gkz1192)
